Measurements reported in patent publication US20250270341A1 (Alector, published 2025).

T1: huCD98hc ECD Avi-His (human, UniProt P08195 105-529)
T1 construct: biotinylated on the Avi tag where captured on streptavidin; also called Human CD98-AVI-His; Human CD98hc-AVI-His
T1 sequence: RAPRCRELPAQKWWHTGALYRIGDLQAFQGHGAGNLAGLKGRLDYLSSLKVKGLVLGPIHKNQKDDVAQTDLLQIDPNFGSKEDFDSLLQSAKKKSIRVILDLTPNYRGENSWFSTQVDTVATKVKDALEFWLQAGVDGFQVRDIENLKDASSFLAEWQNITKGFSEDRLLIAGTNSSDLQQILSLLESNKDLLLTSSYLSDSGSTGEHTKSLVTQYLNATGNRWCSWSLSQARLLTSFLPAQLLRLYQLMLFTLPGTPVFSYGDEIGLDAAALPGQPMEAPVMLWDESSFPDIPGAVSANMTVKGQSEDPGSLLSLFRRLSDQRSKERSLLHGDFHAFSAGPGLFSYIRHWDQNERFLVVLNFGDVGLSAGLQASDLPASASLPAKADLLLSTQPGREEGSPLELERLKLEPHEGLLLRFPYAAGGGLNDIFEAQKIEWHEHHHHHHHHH

T2: Cyno CD98hc ECD Avi-His (cynomolgus macaque, UniProt P08195 105-529 (human entry))
T2 construct: biotinylated on the Avi tag where captured on streptavidin; also called Cyno CD98-AVI-His; Cyno CD98hc-AVI-His
T2 chain: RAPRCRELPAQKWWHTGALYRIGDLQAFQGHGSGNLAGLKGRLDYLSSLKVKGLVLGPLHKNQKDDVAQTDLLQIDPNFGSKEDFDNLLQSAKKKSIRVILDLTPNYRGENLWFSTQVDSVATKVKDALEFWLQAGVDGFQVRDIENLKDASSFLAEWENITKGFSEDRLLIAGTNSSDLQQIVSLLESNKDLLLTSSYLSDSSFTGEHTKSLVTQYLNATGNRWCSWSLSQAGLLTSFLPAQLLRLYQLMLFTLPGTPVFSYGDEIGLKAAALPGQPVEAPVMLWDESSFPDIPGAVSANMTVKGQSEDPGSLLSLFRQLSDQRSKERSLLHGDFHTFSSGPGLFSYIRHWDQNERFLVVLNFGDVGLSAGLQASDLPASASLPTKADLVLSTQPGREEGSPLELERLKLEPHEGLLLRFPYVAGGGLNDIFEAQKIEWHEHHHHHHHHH


Columns and labels:
[1] = target: T1, huCD98hc ECD Avi-His; experiment: SPR, Carterra LSA, antibody immobilized
Method: (§1) Binding kinetics of 2+1 anti-CD98hc bispecific antibodies (from the hybridoma campaigns) to human and cyno CD98hc Avi-His were evaluated using a Carterra LSA instrument (Carterra, Salt Lake City, UT). The 2+1 anti-CD98hc bispecific antibodies were prepared in duplicates by diluting 50-fold into 10 mM Acetate, pH 5.0 (Carterra) to give final concentration of 20 μg/mL. An HC200M sensor chip (Carterra) was activated using the single channel flow cell with a 7-minute injection of a 1:1:1 mixture of 100 mM MES pH 5.5, 100 mM sulfo-NHS, 400 mM EDC (all reconstituted in MES pH 5.5; 100 μl of each mixed in vial immediately before running assay). After switching to the multi-channel array flow cell, the antibodies were injected over the activated chip in four 96-spot arrays for 15 minutes each. The remaining unconjugated active groups on the chip were then blocked by injecting 1M Ethanolamine pH 8.5 (Carterra) for 7 minutes using the single channel flow cell. The resulting sensor chip contained eight spots for each antibody, at four different densities. Two independent experiments were performed as follows, resulting in an N of between one and eight determinations for each antibody. Spots that yielded less than 20 RU of analyte binding were excluded from further analysis.
(§2) After priming with running buffer HBS-EP+ (Teknova) with 0.5 mg/ml BSA (MP Biomedicals), the immobilized 2+1 anti-CD98hc bispecific antibodies were tested for their ability to bind to several forms of CD98hc Avi-His, including human and cyno orthologs described above. Estimates of affinity were generated by injecting each analyte over the entire antibody array using the single channel flow cell. CD98hc Avi-His analytes were diluted with running buffer, in a series of six, three-fold serial dilutions starting from 600 nM for human and cyno CD98hc Avi-His. Analytes were injected for 5 minutes, and dissociation was followed for 10 minutes. After each analyte injection, antibodies were regenerated with Pierce IgG Elution Buffer (ThermoScientific). Data were processed and analyzed using NextGenKIT high-throughput kinetics analysis software (Carterra).
(§3) The equilibrium dissociation constants (KD) were calculated from the fitted association and dissociation rate constants (k-on and k-off) for 2+1 anti-CD98hc bispecific antibodies of the present disclosure.

[2] = target: T2, Cyno CD98hc ECD Avi-His; experiment: SPR, Carterra LSA, antibody immobilized
Method: as §1, §2, §3

Binder	Kd [1]	Kd [2]
CD98hc.03.010 (2+1 bispecific antibody) (bispecific antibody) heavy 1: EVRLLESGGGLVQPGGSLRLSCAASGFTFSNYAMGWVRQAPGKGLEWVSAISGSGGSTYYADSVKGRFTTSRDDSKNALYLQMNSLRAEDTAVYYCARGGPGWYAADVWGQGTTVTVSSASTKGPSVFPLAPSSKSTSGGTAALGCLVKDYFPEPVTVSWNSGALTSGVHTFPAVLQSSGLYSLSSVVTVPSSSLGTQTYICNVNHKPSNTKVDKKV[here human IgG1 Fc with changes without letters]GGGGSGGGGSGGGGSEVQLQQSGTELVKPGASVKLSCTASGLDIKDTYLHWVKQRPEQGLEWIGKIDPANGNTKYNPKFQGKATITADTSSNTAYLQLSSLTSEDTAVHYCTTPYYSGSSYGDYWGQGTTLTVSSGGSEGKSSGSGSESKSTGGSQIVLTQSPAIMSASPGEKVTLTCSASSSVSSSYLYWYQQKPGSSPKLWIYSTSNLASGVPARFSGSGSGTSYSLTISSMEAEDAASYFCHQWSRYPLTFGAGTKLELK heavy 2: EVRLLESGGGLVQPGGSLRLSCAASGFTFSNYAMGWVRQAPGKGLEWVSAISGSGGSTYYADSVKGRFTTSRDDSKNALYLQMNSLRAEDTAVYYCARGGPGWYAADVWGQGTTVTVSS[here human IgG1 constant region with changes without letters] light: DIQMTQSPSSLSASVGDRVTITCRASQSISSYLNWYQQKPGKAPKLLIYAASSLQSGVPSRFSGSGSGTDFTLTISSLQPEDFATYYCQQADLPAFAFGGGTKVEIKRTVAAPSVFIFPPSDEQLKSGTASVVCLLNNFYPREAKVQWKVDNALQSGNSQESVTEQDSKDSTYSLSSTLTLSKADYEKHKVYACEVTHQGLSSPVTKSFNRGEC	41 nM	80 nM
CD98hc.03.031 (2+1 bispecific antibody) (bispecific antibody) heavy 1: EVRLLESGGGLVQPGGSLRLSCAASGFTFSNYAMGWVRQAPGKGLEWVSAISGSGGSTYYADSVKGRFTTSRDDSKNALYLQMNSLRAEDTAVYYCARGGPGWYAADVWGQGTTVTVSSASTKGPSVFPLAPSSKSTSGGTAALGCLVKDYFPEPVTVSWNSGALTSGVHTFPAVLQSSGLYSLSSVVTVPSSSLGTQTYICNVNHKPSNTKVDKKV[here human IgG1 Fc with changes without letters]GGGGSGGGGSGGGGSQVQLQQSGAELVRPGVSVKISCKASGYTFTDYAMHWVKQSHAKSLEWIGVISTYYGDTTYNQKFKDKATMTVDKSSSTAYLELARLTSEDSAIYYCARVWLLSYAMDNWGQGTSVTVSSGGSEGKSSGSGSESKSTGGSDIVMTQSQRFMSTSVGDGVRITCKASQNVRTAVAWYQQKPGQSPKALINLAPNRHTGVPDRFTARGSGTDFTLTISNVQSEDLADYFCLQHWNYPLTFGAGTKLELK heavy 2: EVRLLESGGGLVQPGGSLRLSCAASGFTFSNYAMGWVRQAPGKGLEWVSAISGSGGSTYYADSVKGRFTTSRDDSKNALYLQMNSLRAEDTAVYYCARGGPGWYAADVWGQGTTVTVSS[here human IgG1 constant region with changes without letters] light: DIQMTQSPSSLSASVGDRVTITCRASQSISSYLNWYQQKPGKAPKLLIYAASSLQSGVPSRFSGSGSGTDFTLTISSLQPEDFATYYCQQADLPAFAFGGGTKVEIKRTVAAPSVFIFPPSDEQLKSGTASVVCLLNNFYPREAKVQWKVDNALQSGNSQESVTEQDSKDSTYSLSSTLTLSKADYEKHKVYACEVTHQGLSSPVTKSFNRGEC	68 nM	150 nM
CD98hc.04.003 (2+1 bispecific antibody) (bispecific antibody) heavy 1: EVRLLESGGGLVQPGGSLRLSCAASGFTFSNYAMGWVRQAPGKGLEWVSAISGSGGSTYYADSVKGRFTTSRDDSKNALYLQMNSLRAEDTAVYYCARGGPGWYAADVWGQGTTVTVSSASTKGPSVFPLAPSSKSTSGGTAALGCLVKDYFPEPVTVSWNSGALTSGVHTFPAVLQSSGLYSLSSVVTVPSSSLGTQTYICNVNHKPSNTKVDKKV[here human IgG1 Fc with changes without letters]GGGGSGGGGSGGGGSQVQLQQSGAELAKPGASLKMSCKASGYTFTDYYIHWVKQRPGQDLEWIGYINPNSAYTDSNQKFKDKATLTADKSSNTAYMQLSSLTSEDSAVYYCARKGHFYAPSFAYWGQGTLVTVSAGGSEGKSSGSGSESKSTGGSDIQMTQTTSSLSASLGDRVTISCRASQDISNYLNWYQQKPDGTVKLLIYYTSRLHSGVPSRFSGSGSGADYSLTISNLQQEDIATYFCQQGDTLPYTFGGGTKLEIE heavy 2: EVRLLESGGGLVQPGGSLRLSCAASGFTFSNYAMGWVRQAPGKGLEWVSAISGSGGSTYYADSVKGRFTTSRDDSKNALYLQMNSLRAEDTAVYYCARGGPGWYAADVWGQGTTVTVSS[here human IgG1 constant region with changes without letters] light: DIQMTQSPSSLSASVGDRVTITCRASQSISSYLNWYQQKPGKAPKLLIYAASSLQSGVPSRFSGSGSGTDFTLTISSLQPEDFATYYCQQADLPAFAFGGGTKVEIKRTVAAPSVFIFPPSDEQLKSGTASVVCLLNNFYPREAKVQWKVDNALQSGNSQESVTEQDSKDSTYSLSSTLTLSKADYEKHKVYACEVTHQGLSSPVTKSFNRGEC	19 nM	14 nM
CD98hc.04.006 (2+1 bispecific antibody) (bispecific antibody) heavy 1: EVRLLESGGGLVQPGGSLRLSCAASGFTFSNYAMGWVRQAPGKGLEWVSAISGSGGSTYYADSVKGRFTTSRDDSKNALYLQMNSLRAEDTAVYYCARGGPGWYAADVWGQGTTVTVSSASTKGPSVFPLAPSSKSTSGGTAALGCLVKDYFPEPVTVSWNSGALTSGVHTFPAVLQSSGLYSLSSVVTVPSSSLGTQTYICNVNHKPSNTKVDKKV[here human IgG1 Fc with changes without letters]GGGGSGGGGSGGGGSEVNLVESGGDLVQPGGSLRLSCATSGFTFTDYFMSWVRQPPGKALEWLGFIRNKAYGYTTEYSASVKGRFTISRDNSQSIFYLQMNTLRLEDSATYYCARGPFISTAPFAYWGQGTLVTVSAGGSEGKSSGSGSESKSTGGSDIVMSQSPSSLAVSVGETVTMSCKSSQSLLYSSNQKNYLAWYQQKPGQSPKLLIYWGSTRESGVPDRFTGSGSGTDFTLTISSVKAEDLAVYYCQHYYGYPWTFGGGTKLEIK heavy 2: EVRLLESGGGLVQPGGSLRLSCAASGFTFSNYAMGWVRQAPGKGLEWVSAISGSGGSTYYADSVKGRFTTSRDDSKNALYLQMNSLRAEDTAVYYCARGGPGWYAADVWGQGTTVTVSS[here human IgG1 constant region with changes without letters] light: DIQMTQSPSSLSASVGDRVTITCRASQSISSYLNWYQQKPGKAPKLLIYAASSLQSGVPSRFSGSGSGTDFTLTISSLQPEDFATYYCQQADLPAFAFGGGTKVEIKRTVAAPSVFIFPPSDEQLKSGTASVVCLLNNFYPREAKVQWKVDNALQSGNSQESVTEQDSKDSTYSLSSTLTLSKADYEKHKVYACEVTHQGLSSPVTKSFNRGEC	18 nM	12 nM
